# The supplement of paper PMC11417369
# ± gives the standard deviation of the averaged measurements. The list shows a part of the results.
# Test system: PfAP2-LT AP2 domain (GST-tagged)
# Experiment: gcPBM binding intensity (ln(normalized median fluorescence intensity)); higher = stronger DNA binding
# Procedure, shortened: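 Binding intensity is defined as the maximum Masliner-normalised natural-log median intensity across replicate spots for either probe orientation. It was measured on an Agilent 4 × 180k array of primer-extended double-stranded 36-bp intergenic genomic probes and negative controls, to which GST-tagged P. falciparum DNA-binding domains made in E. coli were applied for 1 h in 1× PBS with 1% milk, 0.2 mg/ml BSA, 0.5% salmon testes DNA and 0.03% Triton X-100. Detection was by Alexa488 anti-GST antibody and scanning at 488 nm.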
row,Sequence,gcPBM binding intensity (ln)
1,GTGTATAGAATGGTTTCTTTTAAGGTTTTTATTTTT [CACACA_negctrl_site564],8.72 ± 0.42
2,TCTTAAAAGGGGAATGGAATGGAGAAAATGAAATAA [GTGCAC_negctrl_site30],8.46 ± 0.58
3,ATGAATACAAAATTATACAAAATTATCAAAAGTATG [CACACA_negctrl_site1453],8.76 ± 0.48
4,CTTTTTATTTAGAACACACACAAAAAAAAAAAAAAA [CACACA_site1761],8.58 ± 0.4
5,TGCAGTCTGGAGAAACGTACATAGTATCTGGTAGCT [XGTACX_site4937],8.94 ± 0.57
6,ATACATAAATATATATGTACATATATATATATATAT [XGTACX_site1055],9.54 ± 0.12
7,AAAATATATTTAAATTGTACACGTTACCATAACAAT [XGTACX_site2598],8.71 ± 0.39
8,TATGTTTTTACATATTGTACATATTCTTGTAATACG [XGTACX_site1179],8.88 ± 0.45
9,ATTATAATGTTAATGTGTACATATGATTCCTTAATT [XGTACX_site181],8.9 ± 0.38
10,TATGTGTGCAAAAACTGTACACATTAAAGGTATATA [XGTACX_site7627],9.38 ± 0.33
11,ATAAATAAATAAGTACATATATATATGTATATATAT [TGCATGCA_negctrl_site223],9.05 ± 0.42
12,ATGACATGTTCTAAATGTACATTTTTTAACCCTTTT [XGTACX_site1858],8.81 ± 0.56
13,TATGGTTACATTATATGTACTAAACGAATATTTTTA [XGTACX_site5694],8.47 ± 0.48
14,TATACAAGTATATAGGTGCATATATAAGTATATATT [GTGCAC_site9994],8.86 ± 0.45
15,TACTTTCAAAAGATCACACATATATATATATATATA [CACACA_site5630],9.8 ± 0.042
16,TAATAACATACAGACACACACGTAAAAGCACGTGTA [CACACA_site4299],9.26 ± 0.42
17,TAATATATATATATATGTACATATATATTATGTATA [XGTACX_site4690],8.88 ± 0.23
18,AGATTATTTAGAATGTGTACATATTACACATACATG [XGTACX_site8634],8.94 ± 0.43
19,ACTACATTATGTCATACATGCATACATACGTGGTTT [TGCATGCA_site732],9.1 ± 0.45
20,CATTAAAAGTATAATTGTACTTTTCATTTATATATT [XGTACX_site7536],8.63 ± 0.53
21,AGTAATTTAAGGAATACACACAAGAAAAAAATAAGA [CACACA_site6177],9.13 ± 0.61
22,TTTTTAACCAAACATCAAAACATATTTTTTTGTTAT [CACACA_negctrl_site385],8.38 ± 0.47

row,Sequence,gcPBM binding intensity (ln)
1,GTATACCTTTTGACATGTACGTATGTATATTTGGGT [XGTACX_site720],9.08 ± 0.41
2,CATACATACAAACACACACACACACCCATATATATA [CACACA_site2918],10.1 ± 0.31
3,AAAAAAAAAAAACACACACACACATAAATATATATA [CACACA_site149],10.1 ± 0.18
4,TGTAAATTTGGCATCACACATAAATAAACATATAAA [CACACA_site4497],8.77 ± 0.45
5,TATTAACATATATAAAGTACATTAAACAACATTGTA [XGTACX_site7667],8.59 ± 0.41
6,TTTTCACTTTTAAAAACATGCATACTTTATAAAATA [TGCATGCA_site967],8.34 ± 0.45
7,TATATATAAAAAAGCACACATACATACATACATAAT [CACACA_site890],9.23 ± 0.32
8,TACACAAGCGGACACACACACATATATATATATATA [CACACA_site4832],10.415 ± 0.0071
9,AACATTCTAAAACACACACACACATATATATATATA [CACACA_site1052],9.98 ± 0.11
10,TGGTAAAGGAGCAAGATGATAAATCTCCATAACTTT [CACACA_negctrl_site492],8.65 ± 0.49
11,ATGTCTATAATAAGAACACACATATATTTAATTTAA [CACACA_site7394],8.71 ± 0.46
12,CTATATTCGTTTAATAGTACATATATAACTAGACAA [XGTACX_site5770],8.54 ± 0.42
13,GTTGGTACCTTACTTTTACACACTTTTTTTTTTTTT [CACACA_site8441],9.14 ± 0.49
14,TATATATATATGTATACACACATACAAATATGTAAA [CACACA_site9238],9.1 ± 0.12
15,AAAAGAAATATTTATACACACACACTAACATATATA [CACACA_site8580],9.65 ± 0.35
16,GTGAAAAAAAACATATGTACTTATACACTAATCTAT [XGTACX_site7600],8.87 ± 0.42
17,TTATCATTTTAATGGTGTACTCAATAAAAACTTTAA [XGTACX_site4595],8.16 ± 0.31
18,TTATATATAATTACATGTACGTAGTATTATTTAAAT [XGTACX_site3418],8.62 ± 0.36
19,TACACAAGAAAATTCACACACACACCCATATATATA [CACACA_site3879],10.12 ± 0.092
20,ATGTAATTATAAGATTAATATACATAATTATATGTA [GTGCAC_negctrl_site458],8.61 ± 0.54
21,AACATACATGTATATAGTACATATTACATCTGATAC [XGTACX_site3649],9.06 ± 0.39
